# Measured values reported in publication PMC6919601, “Identification of Plasmodium dipeptidyl aminopeptidase allosteric inhibitors by high throughput screening” (PLoS ONE, 2019).
# The whole screen tested about 110,000 compounds, of which about 230 (0.21%) showed an effect of 50% or more. The list shows a part of the results.
# Molecular target: DPAP1 (Plasmodium falciparum, UniProt Q8IIJ9)
# Experiment: primary screen, percent inhibition; read by cleavage of a fluorogenic dipeptide substrate; higher = more effect of the substance
# Set-up: species or system P. falciparum D10 trophozoite lysates; single well
# 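Further: 30 min substrate incubation versus DMSO and 10 µM JCP410 controls.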
# DPAP1, sequence (Q8IIJ9 whole entry, looked up): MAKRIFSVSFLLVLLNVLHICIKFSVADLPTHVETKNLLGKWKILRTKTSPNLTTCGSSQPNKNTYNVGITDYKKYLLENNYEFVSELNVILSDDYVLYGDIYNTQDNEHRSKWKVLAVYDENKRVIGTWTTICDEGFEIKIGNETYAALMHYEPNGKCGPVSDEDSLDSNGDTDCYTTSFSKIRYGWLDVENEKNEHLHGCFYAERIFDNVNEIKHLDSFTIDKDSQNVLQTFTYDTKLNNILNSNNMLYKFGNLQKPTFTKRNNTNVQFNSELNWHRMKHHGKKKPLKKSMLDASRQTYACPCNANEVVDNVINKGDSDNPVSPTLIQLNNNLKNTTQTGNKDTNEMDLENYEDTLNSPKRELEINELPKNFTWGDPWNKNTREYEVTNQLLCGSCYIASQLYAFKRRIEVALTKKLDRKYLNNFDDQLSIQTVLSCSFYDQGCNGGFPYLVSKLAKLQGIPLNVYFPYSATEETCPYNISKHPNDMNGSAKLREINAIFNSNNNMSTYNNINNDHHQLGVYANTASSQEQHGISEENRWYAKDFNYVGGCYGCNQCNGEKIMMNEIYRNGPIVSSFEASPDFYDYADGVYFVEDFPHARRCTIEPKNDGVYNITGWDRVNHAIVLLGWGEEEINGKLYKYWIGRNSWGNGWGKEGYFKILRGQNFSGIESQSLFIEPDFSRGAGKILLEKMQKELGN
row,Compound,% Inhibition @ 10 uM
1,Cc1cccc(OCCCCCc2c(C)n[nH]c2C)c1,-2.18%
2,CCC(Cc1ccccc1)NC(=O)c1cc2sccc2n1C (centres unmarked),-3.08%
3,CC(C)(C)S(=O)(=O)c1ccsc1Br,5.58%
4,CCOCCO/C(O)=C1\C(C)=NC2=C(C(=O)CCC2)C1c1cc(Br)c(O)c(OCC)c1 (centres unmarked),13.2%
5,Cc1ccc2nc3c(c(N)c2c1)C(=O)CC(C)(C)C3,5%
6,Oc1ccccc1-c1cc(-c2ccccc2)nc(N2CCCCC2)n1,-2.47%
7,COc1ccccc1C1C=C(c2cccnc2)Nc2nc3ccccc3n21 (centres unmarked),-1.62%
8,CN1CCC(NCc2ccc(F)cc2)CC1,-9.33%
9,COc1ccc(OC)c(-c2[nH]nc3c2C(c2ccc(C)o2)C(C#N)=C(N)O3)c1 (centres unmarked),-0.305%
10,Cc1cc(N2CCCC2)n2nc(C)nc2n1,-2.19%
11,O=C(O)c1cc(C(=O)O)c2cc(Cl)ccc2n1,3.25%
12,COc1ccccc1N1CCN(C2CC(=O)N(c3ccc(C(=O)O)cc3)C2=O)CC1 (centres unmarked),-1.24%
13,Cc1cc(C)c(S(=O)(=O)N2CCN(Cc3ccccc3)CC2)c(C)c1,-3.04%
14,O=C(Nc1ccc(C(=O)N2CCOCC2)cc1)Nc1cccc(Cl)c1,3.17%
15,Cc1ccc(CN2CCN(C(=O)c3ccccc3F)CC2)cc1,-13.4%
16,Cc1cc(N2CCNCC2)c2ccccc2n1,-1.55%
17,COCCCNC(=O)c1cc(-c2ccc(C)cc2)nc2[nH]nc(-c3ccc(C)cc3)c12,2.96%
18,Oc1oc(-c2cccc3ccccc23)nc1/C=N/Cc1ccccc1,3.42%
19,COc1ccc2occ(C(O)c3ccccc3)c2c1 (centres unmarked),1.04%
20,C=CCOC(=O)C1=C(C)N(C)C(=O)NC1c1ccc(OCc2ccccc2)cc1 (centres unmarked),13.2%
21,O=C1CC(c2ccccc2)OC12CCCCC2 (centres unmarked),-2.47%
22,COc1cc(OC)cc(C(=O)NCc2ccccc2)c1,-2.32%
23,Cn1c(=O)c(C(=O)c2ccccc2Cl)c(O)c2ccccc21,-4.31%
24,CCCN(CCO)Cc1ccc(OC(F)(F)F)cc1,-1.75%
25,S=C(c1ccc(-c2ccc(Cl)cc2Cl)o1)N1CCOCC1,-3.98%

row,Compound,% Inhibition @ 10 uM
1,COc1ccc(CC(=O)n2nc(-c3ccccc3)c(Br)c2N)cc1OC,5.45%
2,N#CCNC(=O)[C@H](Cc1ccc(-c2ccccc2)cc1)NC(=O)OCc1ccccc1,-5.2%
3,CC(C)(O)C#Cc1ccc(C(=O)NCc2ccccc2)s1,-2.63%
4,Cc1c(C(=O)NCCCOC(C)C)sc2nc(-c3ccc(F)cc3)cn12,-0.138%
5,Cc1ccc(S(=O)(=O)NCCN2CCOCC2)cc1-c1nnc2c3ccccc3c(C)nn12,-1.82%
6,CC(C)C[C@H](NC(=O)c1cc(Br)c(O)cc1O)C(=O)NCC#N,0.174%
7,N#CCNC(=O)[C@H](CSCc1ccc(SC(F)(F)F)cc1)NC(=O)c1ccccc1,-3.49%
8,O=C(NCc1noc2ccccc12)N1CCCCC1,3.54%
9,COc1ccc(C2=NC(c3ccsc3)NC(c3cc(Cl)ccc3O)C2)cc1 (centres unmarked),-4.24%
10,Fc1ccccc1OCCCCn1ccnc1,1.83%
11,Oc1cccc(CN2CCC(Cc3ccccc3)CC2)c1,-1.18%
12,CCc1ccccc1NC(=O)CN(c1ccccc1)S(C)(=O)=O,2.33%
13,O=C(O)C1CCCCC1C(=O)Nc1cccc(Cl)c1 (centres unmarked),6.74%
14,COc1ccc(Cn2c(=O)oc3ccccc32)cc1OC,-1.98%
15,O=C(O)c1ccc(CNc2nc3ccc(C(=O)c4ccccc4)cc3n3cnnc23)cc1,-5.93%
16,COC(=O)c1sc(N2C(=O)c3oc4ccccc4c(=O)c3C2c2ccco2)nc1C (centres unmarked),4.06%
17,COc1cc(NC(=O)c2ccc(Cl)s2)c(OC)cc1Cl,-2.88%
18,CCSc1nc(O)c2c(n1)NC(=O)CC2c1ccc(F)cc1F (centres unmarked),3.84%
19,CCOc1ccccc1N1CCN(Cc2sccc2C)CC1,-2.56%
20,CCSc1sc(CC)cc1C1C2=C(O)CCCC2=NC(C)=C1C(=O)Nc1cc(C)ccn1 (centres unmarked),-3.06%
21,COc1ccc(OC)c(C2=NOC(C(=O)N3CCCCC3C)C2)c1 (centres unmarked),1.24%
22,Cn1c(=O)c2c(nc(CN3CCc4ccccc4C3)n2CC(=O)c2ccccc2)n(C)c1=O,-5.1%
23,CCOc1c(C=C(C#N)C#N)c2ccccc2n1-c1c(Cl)cccc1Cl,-1.42%
24,CC(=O)Nc1ccc(Oc2ccc(NC(C)=O)c(NC(C)=O)c2)cc1,70.7%
25,COc1ccc(/C=C2\N=C(SCC(=O)Nc3ccccc3)N(C)C2=O)cc1OC,2.68%
